# From ChEMBL document CHEMBL4888484, “Replenishing the malaria drug discovery pipeline: Screening and hit evaluation of the MMV Hit Generation Library 1 (HGL1) against asexual blood stage Plasmodium falciparum ,using a nano luciferase reporter read-out” (2022)
# Out of some 150,000 compounds screened, about 540 (0.36%) showed an effect of 50% or more. The list shows a part of the results.
# Tested on: Plasmodium falciparum
# Experiment: Primary screen in NF54 nanoGlo assay, in single point, at 2uM, 72h; a lower Z score goes with more inhibition
# Type: functional, Erythrocyte
# Settings: timepoint 72 hour
SMILES,% Inhibition,Z score
Cc1ccc(-c2nn3nc(COc4cccc5c4OC(C)(C)C5)nc3s2)cc1,42%,-5.39
CC(C)[C@H]1CN(Cc2cc3ccccc3o2)C[C@@H]1N(C)C,-4%,0.79
Cc1nc(-c2cccc(Cl)c2)sc1-c1cc(C(=O)N2CCN(c3ccccc3)CC2)[nH]n1,-10%,1.23
Cc1ccc(NC(=O)C2C3NC(=O)N(C4CCCCC4)C2(C)Oc2ccccc23)c(C)c1 (stereo not drawn),29%,-3.92
CCn1nc(C)cc1C(=O)Nc1c(N2CCCC2)nn(C)c1C,-19%,3.58
Cc1ccc(OCc2cc(C(=O)N(Cc3ccccc3)CC3CCC3)no2)cn1,-18%,1.96
CN1c2ccccc2C(=O)N[C@@H]1c1ccccc1OCc1ccccc1,35%,-5.05
Cc1cc(C(=O)N2C[C@H]3CCC[C@@H](O)[C@H]3C2)c(C)o1,-12%,1.15
Cc1onc(-c2ccccn2)c1C(=O)N[C@H]1CCCOCC1,12%,-1.37
C#CC(NS(=O)(=O)c1ccc(NS(=O)(=O)CCC)c(F)c1)C1CCOC1 (stereo not drawn),-6%,0.66
O=C(Nc1ccc2c(c1)OCO2)N1CCC(c2ccsc2)CC1,-8%,1.18
CCN(CCOc1cccc(OC)c1)C(=O)Cc1cccc(O)c1,17%,-2.17
CCc1nc(NC(=O)N[C@@H]2C=C[C@H](CO)C2)sc1C,-2%,0.27
O=C(c1ccc2[nH]ccc2c1)N1Cc2cccnc2C1,-10%,1.66
CC(C)Oc1cc(CN(Cc2csc([C@@H]3CCCO3)n2)C2CC2)ccn1,12%,-1.48
COCCN(Cc1cc(Cl)cs1)[C@@H](C)C(N)=O,-10%,1.14
O=C(Cc1cccc(Cl)c1)NC1CC1,-6%,1
Cc1ccc(-c2ncn(C3CCCCC3)c2-c2ccc(C(=O)N3CCN(c4ncccn4)CC3)o2)cc1,-5%,0.71
CCOc1cccc(Cl)c1CN1CCOC[C@H]1c1nnc(C)o1,-12%,2.36
C[C@H]1CCCN(Cc2ccccc2CNC(=O)c2nccnc2N)C1,7%,-1.35
CC(C)(C(=O)NCc1cc2c(s1)CCCCC2)S(C)(=O)=O,1%,-0.11
Cc1cc(C(=O)Nc2nc3c(s2)CCCC3)cs1,-4%,0.67
O=c1c2ccccc2ncn1C[C@H]1CC[C@H](C(=O)NC[C@H]2CC[C@H](C(=O)O)CC2)CC1,-10%,1.37
CC(C)OCCS(=O)(=O)NCc1nccs1,-10%,1.03
COc1cccc(-c2nnc3c4ccccc4nc(N4CCN(C(=O)CC(C)(C)C)CC4)n23)c1,-5%,0.74
O=C(CN1Cc2ccccc2C2(CCC2)C1)N1CCOCC1,1%,-0.09
CC(C)N1C(=O)C[n+]2ccccc2[C@@H]1C(=O)Nc1ccccc1,-5%,0.83

SMILES,% Inhibition,Z score
CC(=O)Nc1ccc(C)c(C(O)(C(F)(F)F)C(F)(F)F)c1,4%,-0.53
CNC(=O)C1CN(C(=O)c2ccc(C3CC3)nc2C)C1,4%,-0.49
COCCCN(CCC(=O)N1CCOCC1)C(=O)c1cc(C)oc1C,2%,-0.33
CCN(Cc1ccccn1)C(=O)c1ccc2nc(-c3ccc(F)cc3)cn2c1,-5%,0.84
O=C(NS(=O)(=O)Cc1ccc(Br)cc1)c1ccoc1,-8%,1.12
O=C(Cc1ccncc1)Nc1n[nH]c2ccc(C(F)(F)F)cc12,-42%,4.96
CN(C)Cc1ccnc(NC(=O)C2CCN(S(C)(=O)=O)CC2)c1,-11%,1.46
COC(=O)C(C)(C)c1nc(CCN2CCOC2=O)sc1C,-8%,1.06
Cc1cc2n(n1)CCN(Cc1cc(C#N)c(C)[nH]1)C2,-10%,1.7
Cc1cc(C)nc(N2CCN(C(=O)[C@@H]3CCCCCN3C)CC2)n1,-8%,1
O=C(Cc1cc(F)c(F)cc1Cl)NCc1cc2n(n1)CCNC2,-14%,1.27
C[C@H]1CCCCN1C(=O)CCc1nc2ccccc2s1,-7%,0.58
O=S(=O)(CCCC1CCCCC1)NCc1nc(C2CC2)no1,-7%,1.11
O=C1OC[C@H]2CN(c3nc4ccc(Cl)cc4s3)CCN12,-7%,0.98
CC(=O)N1CCc2cc(S(=O)(=O)N3CCC(CC(=O)N4CCOCC4)CC3)ccc21,-15%,1.44
CCN1CCCN(C(=O)c2ccc(-c3ccc(O)c(C)c3C)cc2)CC1,-7%,1.37
COCC(=O)N(CCC(C)C)c1nnc(C)c2ccccc12,-3%,0.45
O=S(=O)(c1cccc2nsnc12)N1CCC2(CC[C@@H]2N2CCOCC2)CC1,1%,-0.15
Cc1ccc(C(O)CN2CCOC(c3nc(C)n[nH]3)C2)c(C)c1 (stereo not drawn),-3%,0.45
COc1ccc(-c2cc(N3CCOCC3)ncn2)c(OC)c1,11%,-1.5
CS(=O)(=O)c1ccccc1CN[C@H]1CCOC12CCCC2,-4%,0.88
C[C@@H](C(=O)N(C)CCCc1cc(-c2ccccc2)n[nH]1)n1cncn1,-14%,1.39
Cc1nnnn1[C@@H](Cc1ccc(F)cc1)C(=O)N1CCC(CC(=O)N2CCCC2)CC1,-12%,1.58
Cc1ccc(C(=O)Nc2cccc(NC(=O)c3ccc4c(c3)OCO4)c2)cc1F,-4%,0.65
CC(=O)N1CC[C@H](CN(C)c2nc(-c3ccc(C)cc3)no2)C1,7%,-0.99
COCCn1c(N)c(C(=O)CN(C)c2cccc(C)c2C)c(=O)[nH]c1=O,-5%,0.79
Brc1ccc2nc(Nc3cccc4ccccc34)nc(-c3ccccc3)c2c1,-13%,2.05
